These results are taken from the antibiotic and cytotoxicity screens of Wong et al. (2023).

Some of the results follow.

The test system of one test is HSkMC. Nature of the test: cytotoxicity call (relative viability < 0.9). The conditions noted are these: 10 µM.
A further test has as its system HepG2. Nature of the test: cytotoxicity call (relative viability < 0.9). The note with it: 10 µM.
The next test has as its system S. aureus RN4220. Nature of the test: growth inhibition call (relative growth <= 0.2). The note with it: 50 µM.

In the case of `CNc1ccccc1C(=O)N1CCc2c([nH]c3ccccc23)C1=O`, the cytotoxicity call in the test on HSkMC and with HepG2 was “inactive” in each case. Further, the growth inhibition call in the test with S. aureus RN4220 is “inactive”.

As to `Cc1ccc(S(=O)(=O)N[C@@H]2CC[C@H](CC(=O)N3CCC(Cc4ccccc4)CC3)O[C@H]2CO)cc1`, the cytotoxicity call with HSkMC and with HepG2 was “inactive” each time. Moreover, the growth inhibition call in the test with S. aureus RN4220 is “inactive”.

In the case of `COc1cc(Nc2nc3ccccc3nc2NS(=O)(=O)c2ccc(NC(=O)c3ccc(C)c(OC)c3)cc2)cc(OC)c1`, the cytotoxicity call in the test with HSkMC and in the test with HepG2 was “inactive” in each case. Moreover, the growth inhibition call in the test on S. aureus RN4220 was “inactive”.

Regarding `C[C@@H]1CCCCO[C@H](CN(C)C(=O)C2CCCCC2)[C@@H](C)CN([C@H](C)CO)C(=O)c2cc(NS(=O)(=O)c3ccc(F)cc3)ccc2O1`, the cytotoxicity call in the test with HSkMC and in the test on HepG2 was “inactive” in each case. For the same compound, the growth inhibition call with S. aureus RN4220 is “inactive”.

Regarding `C=C1SC(Nc2c(C)cccc2C)=NC12CCCCC2`, in the test with HSkMC, the cytotoxicity call is “inactive”. For the same compound, the cytotoxicity call with HepG2 was “active”. For the same compound, the growth inhibition call in the test on S. aureus RN4220 is “inactive”.

Take `C[C@H](CO)N1C[C@H](C)[C@H](CN(C)S(C)(=O)=O)Oc2cc(C#CCN(C)C)ccc2S1(=O)=O`: the cytotoxicity call in the test on HSkMC and with HepG2 was “inactive” in each case. The growth inhibition call in the test on S. aureus RN4220 is “inactive”.

As to `CC1CCCC(C)N1` (stereo unspecified), the cytotoxicity call in the test on HSkMC and in the test with HepG2 was “inactive” in each case. In addition, the growth inhibition call in the test with S. aureus RN4220 was “inactive”.

For `C[C@@H]1CCn2cc(nn2)COC[C@@H](Cc2ccccc2)NC(=O)[C@H](C)CCn2cc(nn2)COC[C@@H](Cc2ccccc2)NC1=O`, the cytotoxicity call in the test with HSkMC and in the test on HepG2 was “inactive” in each case. The growth inhibition call in the test with S. aureus RN4220 was “inactive”.

With `CO[C@@H]1CN(C)C(=O)c2cc(NS(=O)(=O)CC(F)(F)F)ccc2OC[C@H](C)N(Cc2cccnc2)C[C@H]1C`, the cytotoxicity call with HSkMC and in the test with HepG2 was “inactive” throughout. Moreover, the growth inhibition call with S. aureus RN4220 is “inactive”.

On to `C[C@@H]1CN([C@@H](C)CO)C(=O)c2cccc(NS(=O)(=O)c3ccc(F)cc3)c2O[C@H]1CN(C)Cc1ccc(-c2ccccc2)cc1`, for which the cytotoxicity call with HSkMC and in the test on HepG2 was “inactive” in each case. For the same compound, the growth inhibition call in the test on S. aureus RN4220 was “inactive”.

With `NCc1cc(-c2ccccc2Cl)no1`, the cytotoxicity call with HSkMC and in the test on HepG2 was “inactive” throughout. Also, in the test with S. aureus RN4220, the growth inhibition call is “inactive”.

Regarding `C[C@H](CO)N1C[C@H](C)[C@H](CN(C)Cc2ccc(Oc3ccccc3)cc2)Oc2ccc(NC(=O)Cn3cnnn3)cc2C1=O`, the cytotoxicity call in the test on HSkMC and in the test on HepG2 was “inactive” each time. Moreover, in the test on S. aureus RN4220, the growth inhibition call was “inactive”.

Regarding `O=C(CCCCCCC(=O)Nc1ccc([C@@H]2O[C@H](CSc3ccncc3)C[C@H](c3ccccc3)O2)cc1)NO`, the cytotoxicity call in the test on HSkMC and in the test on HepG2 was “inactive” in each case. Also, the growth inhibition call in the test with S. aureus RN4220 is “inactive”.

In the case of `CC(C)NC(=O)N(C)C[C@H]1Oc2c(NC(=O)NC3CCCCC3)cccc2C(=O)N([C@@H](C)CO)C[C@@H]1C`, the cytotoxicity call with HSkMC and in the test on HepG2 was “inactive” in each case. Further, in the test on S. aureus RN4220, the growth inhibition call is “inactive”.

Take `O=C(C[C@@H]1C[C@H]2c3cc(NS(=O)(=O)c4ccc(F)cc4)ccc3O[C@H]2[C@H](CO)O1)N1CCCCC1`: the cytotoxicity call in the test on HSkMC and in the test on HepG2 was “inactive” each time. In the test on S. aureus RN4220, the growth inhibition call is “inactive”.

On to `C[C@@H]1CN([C@H](C)CO)C(=O)Cc2cc(NS(C)(=O)=O)ccc2O[C@H]1CN(C)C(=O)Nc1ccccc1`, for which the cytotoxicity call in the test with HSkMC and in the test with HepG2 was “inactive” each time. Also, in the test with S. aureus RN4220, the growth inhibition call was “inactive”.

Turning to `COC[C@@H]1CN(C(=O)[C@H]2CCCN2C)N1`, the cytotoxicity call in the test with HSkMC and with HepG2 was “inactive” in each case. In addition, in the test on S. aureus RN4220, the growth inhibition call was “inactive”.

On to `C[C@H](CO)N1C[C@H](C)[C@@H](CN(C)Cc2ccc(Cl)c(Cl)c2)Oc2ccc(NC(=O)Cc3cn(C)c4ccccc34)cc2C1=O`, for which the cytotoxicity call in the test with HSkMC and in the test with HepG2 was “inactive” throughout. For the same compound, in the test with S. aureus RN4220, the growth inhibition call was “inactive”.

As to `C[C@@H]1CN([C@@H](C)CO)C(=O)c2cc(NS(=O)(=O)c3ccccc3)ccc2O[C@@H]1CN(C)S(C)(=O)=O`, the cytotoxicity call in the test on HSkMC and with HepG2 was “inactive” each time. In the test on S. aureus RN4220, the growth inhibition call was “inactive”.

With `C[C@@H]1CN([C@H](C)CO)C(=O)c2cc(C#CC3(O)CCCC3)cnc2O[C@H]1CN(C)C(=O)C1CCCCC1`, the cytotoxicity call with HSkMC and in the test on HepG2 was “inactive” each time. In the test with S. aureus RN4220, the growth inhibition call is “inactive”.

For the compound `CC(C)CC#Cc1ccc2c(c1)O[C@H](CN(C)C(=O)c1ccncc1)[C@@H](C)CN([C@H](C)CO)S2(=O)=O`, the cytotoxicity call in the test on HSkMC and in the test with HepG2 was “inactive” throughout. The growth inhibition call in the test with S. aureus RN4220 was “inactive”.

On to `C[C@H](CO)N1C[C@H](C)[C@@H](CN(C)Cc2ccccc2)Oc2ccc(NC(=O)Nc3ccc(C(F)(F)F)cc3)cc2CC1=O`, for which the cytotoxicity call with HSkMC and with HepG2 was “active” throughout. Besides, the growth inhibition call with S. aureus RN4220 was “inactive”.

With `C[C@@H]1CN([C@H](C)CO)C(=O)Cc2cc(NC(=O)CCN3CCOCC3)ccc2O[C@H]1CN(C)S(C)(=O)=O`, the cytotoxicity call in the test with HSkMC and in the test on HepG2 was “inactive” throughout. For the same compound, the growth inhibition call with S. aureus RN4220 was “inactive”.

On to `C[C@@H]1CCCCO[C@@H](CN(C)Cc2ccc(C(=O)Nc3ccccc3N)cc2)[C@@H](C)CN([C@H](C)CO)C(=O)c2cc(NC(=O)Nc3cccc4ccccc34)ccc2O1`, for which the cytotoxicity call with HSkMC and in the test with HepG2 was “inactive” in each case. Besides, the growth inhibition call with S. aureus RN4220 was “inactive”.

In the case of `COc1cccc(S(=O)(=O)Nc2ccc3c(c2)[C@@H]2C[C@@H](CC(=O)N4CCCCC4)O[C@@H](CO)[C@@H]2O3)c1`, the cytotoxicity call in the test with HSkMC and in the test on HepG2 was “inactive” in each case. Moreover, the growth inhibition call in the test with S. aureus RN4220 is “inactive”.

Consider `O=S(=O)(NCC[C@@H]1CC[C@H](NS(=O)(=O)c2cccc(Cl)c2)[C@@H](CO)O1)c1cccc(F)c1`, for which the cytotoxicity call in the test on HSkMC and with HepG2 was “inactive” each time. In the test on S. aureus RN4220, the growth inhibition call was “inactive”.

Take `C[C@H](CO)N1C[C@H](C)[C@H](CN(C)Cc2ccc(Oc3ccccc3)cc2)Oc2c(NS(=O)(=O)c3ccccc3)cccc2C1=O`: the cytotoxicity call in the test on HSkMC (human skeletal muscle cells) and in the test on HepG2 was “inactive” in each case. Moreover, the growth inhibition call in the test with S. aureus RN4220 is “inactive”.
